According to PubChem BioAssay AID463173 (ICCB-Longwood Screening Facility, Harvard Medical School, 2010):
Screen size: about 52,000 compounds; about 1,700 (3.3%) were called active. Rule as the data show it: active = survival mostly below about 52% (no sharp cut-off); inactive = mostly above about 56%. The list shows a part of the results.

What follows are molecules tested on Wild type (assay: growth inhibition of S. aureus wild type versus tarO mutant, primary screen, teichoic acid synthesis inhibitors, RN4220, OD600 (AID 463173)). Settings: S. aureus RN4220 wild type/DeltatarO growth, OD600, 18 h, hits give low values, screened at 18.75 µg/mL (by protocol).

SMILES | survival
COc1cccc(NC(=O)C2CCCN(S(=O)(=O)c3c(C)nn(C)c3C)C2)c1 (configuration not stated) | inactive: 79%
O=C(Cc1ccc(Cl)cc1)Nc1ccc2nn(-c3ccc(Cl)cc3)nc2c1 | inactive: 80%
c1ccc(CNc2nc3c(-c4ccccc4)nnn3c3ccccc23)cc1 | inactive: 95%
COc1ccc(SCc2cc(=O)c3cc(Cl)ccc3[nH]2)cc1 | inactive: 84%
Cc1ccc(CNC(=O)c2ccc(Cn3c(=O)c4ccccc4n(CC(=O)Nc4ccc(C)cc4C)c3=O)cc2)cc1 | inactive: 85%
CCOc1ccc(OCC)c(NS(=O)(=O)c2cc(-c3cc(C)no3)ccc2C)c1 | inactive: 90%
CC(C)N(C)NC(=S)Nc1ccccc1 | inactive: 117%
CCc1ccccc1N1C(=O)N(Cc2ccc(C#N)cc2)c2ccccc2S1(=O)=O | inactive: 129%
CC(C)Sc1oc(-c2cccs2)nc1S(=O)(=O)c1ccc(Cl)cc1 | inactive: 66%
CCOc1ccc(CCNC(=O)c2cn(CC)c3ccc(S(=O)(=O)N4CCc5ccccc5C4)cc3c2=O)cc1OCC | inactive: 70%
CCn1c2ccccc2c2cc(CN3CCN(Cc4ccccc4F)CC3)ccc21 | active: 4%
Cc1nc(C)c(C(=O)Nc2ccccc2)s1 | inactive: 106%
CCOc1ccc(S(=O)(=O)NCCc2sc3nc(-c4ccc(F)cc4)nn3c2C)cc1 | inactive: 63%
COc1ccc(-c2cc(C(F)(F)F)nc(S(=O)(=O)CCCC(=O)Nc3cccc(O)c3)n2)cc1OC | inactive: 84%
CCC(=O)Oc1ccc(/C=C(\C#N)c2nc3ccccc3[nH]2)cc1OC | inactive: 63%
CCc1ccc(NCc2cc3cc4c(cc3n(CC(=O)Nc3ccc(C)cc3)c2=O)OCO4)cc1 | inactive: 113%
CCOc1ccccc1NC(=O)C(=O)NCCc1sc(-c2cccc(F)c2)nc1C | inactive: 72%
CSc1nc(-c2ccccc2F)c(C#N)c(=O)n1C | inactive: 117%
CCOc1ccc(NC(=O)C2CCCN(S(=O)(=O)c3cccc4nonc34)C2)cc1 (configuration not stated) | inactive: 91%

SMILES | survival
Cc1ccc(Nc2c(-c3cccs3)nc3nc(C)cc(C)n23)cc1 | inactive: 65%
CC(=O)c1ccc(NC(=O)CSc2nnc3ccc(-c4ccc(Cl)cc4)nn23)cc1 | inactive: 92%
Cc1oc2ncnc(N3CCCCC3)c2c1C(=O)N1CCN(c2cccc(C(F)(F)F)c2)CC1 | inactive: 87%
CCOc1ccc(NC(=O)NCc2c(-n3cccc3)sc3c2CCCC3)cc1 | inactive: 88%
CCOc1ccc(NC(=O)CSc2nccn2Cc2ccco2)cc1 | inactive: 90%
COc1ccc(-c2nc3ccccc3s2)cc1NC(=O)COc1ccc(C)cc1 | inactive: 123%
CCC(=O)Nc1ccc2c(c1)C(=O)OC2 | inactive: 110%
COc1ccc(OCC(=O)OCc2cc(=O)n3cc(C)sc3n2)cc1 | active: 1%
CN1C(=O)CSC1=Nc1ccc(F)cc1 | inactive: 131%
CCC1CCCCN1S(=O)(=O)c1ccc(C(=O)Nc2sc3c(c2C(=O)NC)CCC3)cc1 (configuration not stated) | inactive: 73%
CCOCCCN1C(=O)CN(C2CCCCCC2)C(=O)C1c1ccc(OC(C)C)c(OC)c1 (configuration not stated) | inactive: 99%
COc1ccc(NC(=O)c2cc3nc(-c4ccc(C)c(C)c4)cc(C(F)(F)F)n3n2)cc1 | inactive: 90%
COc1ccccc1CNC(=O)c1oc2ccc(S(=O)(=O)N3CCCCC3)cc2c1C | inactive: 77%
CCc1ccccc1NC(=O)c1ccc2c(O)c(S(=O)(=O)c3ccccc3)c(=O)[nH]c2c1 | inactive: 86%
CCOC(=O)C1CCN(C(=O)CCS(=O)(=O)c2cc3c(cc2Cl)NC(=O)CO3)CC1 | inactive: 84%
CCCC(C)NS(=O)(=O)Cc1ccccc1 (configuration not stated) | inactive: 108%
Cc1ccc(CSc2ncc(Cl)c(C(=O)NCCc3ccc(S(N)(=O)=O)cc3)n2)cc1 | inactive: 78%
COc1ccc(NC(=O)CSc2nc(-c3ccc(OC)cc3)[nH]c2-c2ccc(OC)cc2)cc1 | inactive: 76%
Cc1ccc(N(CC(=O)NCc2ccc(Cl)cc2)S(=O)(=O)N(C)C)cc1 | inactive: 84%

SMILES | survival
Cc1ccc(N(Cc2ccc(C(=O)NCc3ccco3)cc2)S(C)(=O)=O)cc1C | inactive: 103%
COc1ccc(-c2cc(OC(=O)c3ccc(Cl)cc3)c3c(C)oc(C)c3c(=O)c2)cc1 | inactive: 78%
COC(=O)c1ccc(Nc2nnc(-c3ccc(C)c(S(=O)(=O)N4CCN(C)CC4)c3)c3ccccc23)cc1 | inactive: 69%
Cc1cccc(CN2C(=O)c3ccccc3S(=O)(=O)c3ccc(C(=O)NCCC4=CCCCC4)cc32)c1 | inactive: 91%
Cc1ccc(C(=O)Nc2cccc(-c3nc4cccnc4s3)c2C)cc1 | inactive: 112%
COc1ccc(C2C(C#N)=C(N)OC3=C2C(=O)CCC3)cc1 (configuration not stated) | inactive: 98%
O=C(CC1C(=O)N(c2ccccc2)C(=O)N1CCC1=CCCCC1)Nc1ccc(F)cc1 (configuration not stated) | inactive: 66%
CCCN1CCN(CCNC(=O)Nc2ccc(OC)cc2OC)CC1 | inactive: 88%
O=C(NC1CCCCC1)C1CC(c2ccccc2O)=NO1 (configuration not stated) | inactive: 114%
COc1ccccc1N(CC(=O)NCCSCc1ccccc1)S(=O)(=O)c1ccc(C)cc1 | inactive: 67%
COCCNC(=O)Cn1nc(N2CCN(c3ccccc3OC)CC2)ccc1=O | inactive: 78%
CCOc1ccc(NC(=O)N2CCN(S(=O)(=O)c3ccc4c(ccn4C)c3)CC2)cc1 | inactive: 73%
Cc1ccccc1NC(=O)CSc1nc(-c2ccccc2C)nc2cc(=O)[nH]n12 | inactive: 94%
O=C1CN(C(=O)Cc2ccc(F)cc2)C(c2ccccc2)c2cc(Cl)ccc2N1 (configuration not stated) | inactive: 121%
COc1ccc(NC(=O)Cn2c(=O)n(C(C)C)c(=O)c3oc4ccccc4c32)cc1Cl | inactive: 66%
CCc1ccc(C(=O)c2cn(CC(=O)Nc3ccc(F)cc3)c3ccc(OC)cc3c2=O)cc1 | inactive: 79%
CC(=O)N1CCN(c2csc3ccc(F)cc3c2=O)CC1 | inactive: 72%
Cc1nn(-c2ccccc2)c(OC(=O)C(C)C)c1Sc1ccccc1 | inactive: 57%
Brc1cccc(CNCCSc2nnnn2-c2ccccc2)c1 | inactive: 61%
